Reference: the supplement of paper PMC12462457
Counter-ions that a name gives are not always drawn. ± gives the standard deviation of the averaged measurements. The list shows a part of the results.

System: OVCAR8
Test: cell count relative to DMSO vehicle (fold change); OVCAR8 is a high-grade serous ovarian cancer line and CX-5461 an RNA polymerase I inhibitor; higher = more surviving senescent cells (less killing)
Settings: senescence inducer: CX-5461 3 µM 48 h, then 6 d recovery (CX senescent), exposure time 24 h

| SMILES | cell count (compound dose 1 µM) | cell count (compound dose 5 µM) |
| --- | --- | --- |
| Cc1nn(C)c2nc(NNC(=O)Nc3cc(Cl)nc(Cl)c3)cc(C(C)C)c12 | 1.15 ± 0.15 | 1.09 ± 0.2 |
| CC1(C)OC(=O)C=C[C@]2(C)[C@H]3CC[C@@]4(C)[C@H](c5ccoc5)OC(=O)[C@H]5O[C@]54[C@]3(C)C(=O)C[C@@H]12 [Obacunone] | 1.01 ± 0.05 | 0.924 ± 0.044 |
| O=C(O)c1cc(=O)c2cccc(O)c2[nH]1 | 1.07 ± 0.093 | 1.04 ± 0.11 |
| O=c1[nH]cc(F)c(=O)[nH]1 [5-Fluorouracil] | 1.09 ± 0.12 | 1.1 ± 0.1 |
| CNC(=O)c1ccccc1Oc1nc(Nc2cc(OC)c(OC)c(OC)c2)ncc1Br | 1.2 ± 0.24 | 0.998 ± 0.04 |
| N#C[C@H]1[C@H](O)[C@@H](CO)O[C@H]1n1ccc(N)nc1=O [CNDAC (hydrochloride)] | 0.984 ± 0.12 | 0.993 ± 0.16 |
| O=C(O)CSc1cc(NS(=O)(=O)c2ccc(Br)cc2)c2ccccc2c1O | 1.04 ± 0.04 | 1.1 ± 0.2 |
| Nc1ncnc(N[C@@H]2O[C@H](CO)[C@@H](O)[C@H]2O)c1[N+](=O)[O-] [Clitocine] | 1.21 ± 0.071 | 1.08 ± 0.03 |
| N[C@@H](CCC(=O)O)C(=O)O [L-Glutamic acid] | 1.04 ± 0.28 | 0.987 ± 0.07 |
| COc1cc2c(cc1O)CC[C@@H]1[C@@H]2CC[C@]2(C)[C@@H](O)CC[C@@H]12 [2-Methoxyestradiol] | 1.17 ± 0.048 | 1.17 ± 0.13 |
| O=c1[nH]c(=O)n([C@@H]2O[C@H](CO)[C@@H](O)[C@H]2O)cc1F [5-Fluorouridine] | 1.08 ± 0.2 | 1.03 ± 0.06 |
| NC(=O)c1ccc2nc(-c3ccc(Oc4ccc(Cl)cc4)cc3)[nH]c2c1 | 1.18 ± 0.25 | 1.23 ± 0.31 |
| CC(C)C[C@H](NC(=O)[C@@H](COC(C)(C)C)NC(=O)[C@H](Cc1ccc(O)cc1)NC(=O)[C@H](CO)NC(=O)[C@H](Cc1c[nH]c2ccccc12)NC(=O)[C@H](Cc1cnc[nH]1)NC(=O)[C@@H]1CCC(=O)N1)C(=O)N[C@@H](CCCNC(=N)N)C(=O)N1CCC[C@H]1C(=O)NNC(N)=O [Goserelin (acetate)] | 1.18 ± 0.16 | 1.15 ± 0.13 |
| Cc1cccc(NC(=O)Nc2ccc(-c3csc4ncnc(N)c34)cc2)c1 | 1.03 ± 0.042 | 0.944 ± 0.095 |
| C/C=C1/[C@H](O[C@@H]2O[C@H](CO)[C@@H](O)[C@H](O)[C@H]2O)OC=C(C(=O)OC)[C@H]1CC(=O)OCCc1ccc(O)c(O)c1 [Oleuropein] | 1.12 ± 0.072 | 1.18 ± 0.15 |
| CC(C)(C)Cn1c(N)nc2ccc(-c3[nH]c(C(C)(C)C)nc3-c3ccc(F)cc3)nc21 | 1.15 ± 0.22 | 1.01 ± 0.21 |
| COc1ccc(C(=O)CC2(O)C(=O)Nc3c(Cl)ccc(Cl)c32)cc1 (configuration not stated) | 1.13 ± 0.37 | 1.21 ± 0.21 |
| CC(C)=CC(O)C/C(C)=C/COc1c2ccoc2cc2oc(=O)ccc12 (configuration not stated) [Notopterol] | 1.02 ± 0.076 | 0.897 ± 0.12 |
| CC(C)N(C(=O)c1cc(F)ccc1Oc1cncnc1N1CC2(CCN(CC3CCC(NS(C)(=O)=O)CC3)CC2)C1)C(C)C (configuration not stated) | 1.14 ± 0.25 | 1.16 ± 0.054 |
| CCCCC[C@H](O)/C=C/[C@@H]1[C@@H](C/C=C\CCCC(=O)O)[C@@H](O)C[C@H]1O [Dinoprost (tromethamine salt)] | 1.14 ± 0.16 | 1.09 ± 0.24 |
| O=C(Nc1ccc(OC(F)(F)F)cc1)c1sccc1NCc1ccnc2ccccc12 | 1.21 ± 0.15 | 1.18 ± 0.081 |
| CCCCCCCCCCCCCCCCCCOP(=O)([O-])OC1CC[N+](C)(C)CC1 [Perifosine (KRX-0401)] | 1.16 ± 0.1 | 1.14 ± 0.038 |

| SMILES | cell count (compound dose 1 µM) | cell count (compound dose 5 µM) |
| --- | --- | --- |
| N#Cc1ccc(-c2c(-c3ncn[nH]3)sc(N3CCOCC3)c2C#N)c(F)c1 | 1.15 ± 0.095 | 1.05 ± 0.027 |
| COc1cc2c(cc1OC)[C@@H](Cc1ccc(Oc3cc(C[C@@H]4c5cc(OC)c(OC)cc5CCN4C)ccc3O)cc1)N(C)CC2 [Dauricine] | 1.21 ± 0.26 | 1.5 ± 0.27 |
| CC(=O)O[C@H](CC=C(C)C)C1=CC(=O)c2c(O)ccc(O)c2C1=O [Acetylshikonin] | 1.19 ± 0.18 | 1.14 ± 0.22 |
| COc1cc(/C=C/C(O)=C/C(=O)/C=C/c2ccc(O)cc2)ccc1O [Demethoxycurcumin] | 1.1 ± 0.22 | 1.01 ± 0.15 |
| CC(C)[C@H]1C(=O)N[C@@H](CCCNC(=N)N)C(=O)NCC(=O)N[C@@H](CC(=O)O)C(=O)N[C@H](Cc2ccccc2)C(=O)N1C [Cilengitide] | 0.0885 ± 0.054 | 0.0365 ± 0.0021 |
| O=C(c1cccc(Cl)c1F)N1CCN(Cc2cccc(Nc3nccs3)n2)CC1 | 1.18 ± 0.16 | 0.893 ± 0.1 |
| COc1cc(-c2coc3cc(O)c(OC)c(O)c3c2=O)cc(O)c1OC | 0.988 ± 0.05 | 1.07 ± 0.26 |
| COC1=C(OC)C(=O)C(CCCCCCCCCCO)=C(C)C1=O | 0.992 ± 0.25 | 0.71 ± 0.2 |
| O=C(Nc1c[nH]nc1-c1nc2ccc(CN3CCOCC3)cc2[nH]1)NC1CC1 | 0.587 ± 0.046 | 0.317 ± 0.072 |
| CC(C)CC(=O)Nc1n[nH]c2c1CN(C(=O)C1CCN(C)CC1)C2(C)C | 1.06 ± 0.12 | 0.932 ± 0.21 |
| CC(=O)N1c2ccc(-c3ccc(C(=O)O)cc3)cc2[C@H](Nc2ccc(Cl)cc2)C[C@@H]1C | 1.02 ± 0.027 | 0.892 ± 0.04 |
| Nc1nc(F)nc2c1ncn2[C@@H]1O[C@H](CO)[C@@H](O)[C@@H]1O [Fludarabine] | 0.935 ± 0.052 | 1 ± 0.22 |
| Nc1nc(Cl)nc2c1ncn2[C@@H]1O[C@H](CO)[C@@H](O)[C@@H]1F [Clofarabine] | 1.04 ± 0.15 | 1.05 ± 0.21 |
| CN1CC[C@H](c2c(O)cc(O)c3c(=O)cc(-c4ccccc4Cl)oc23)[C@H](O)C1 [Flavopiridol] | 0.84 ± 0.055 | 0.927 ± 0.12 |
| O=C(Nc1cccc(Nc2cc(Nc3cccc(C(F)(F)F)c3)ncn2)c1)C1CC1 | 1.04 ± 0.11 | 1.16 ± 0.22 |
| CCOC(=O)c1cnn(-c2ccccc2)c1NC(=O)c1cc2nc(-c3ccco3)cc(C(F)(F)Cl)n2n1 [Mycro 3] | 1.11 ± 0.12 | 1.05 ± 0.045 |
| CC(C)n1nc(-c2cc3cc(O)ccc3[nH]2)c2c(N)ncnc21 [Torkinib (PP242)] | 1.12 ± 0.26 | 0.498 ± 0.12 |
| COc1cc(C(N)=O)ccc1NC(=O)[C@@H]1N[C@@H](CC(C)(C)C)[C@@]2(C(=O)Nc3cc(Cl)ccc32)[C@H]1c1cccc(Cl)c1F | 1.11 ± 0.11 | 0.953 ± 0.12 |
| O=C(CCCCCCNC(=O)c1cnc(N(c2ccccc2)c2ccccc2)nc1)NO [Ricolinostat (ACY-1215)] | 1.18 ± 0.013 | 1.17 ± 0.048 |
| O=c1c(O)c(-c2cc(O)c(O)c(O)c2)oc2cc(O)cc(O)c12 | 1.13 ± 0.12 | 1.08 ± 0.11 |
| COc1ccc(-c2cc(=O)c3c(O)cc(O)cc3o2)cc1 | 1.06 ± 0.089 | 1.06 ± 0.011 |
| Cc1ccc(NC(=O)c2ccc(CN3CCN(C)CC3)cc2)cc1Nc1nc(-c2cccnc2)cs1 [Masitinib (AB1010)] | 1.15 ± 0.12 | 1.01 ± 0.21 |

| SMILES | cell count (compound dose 1 µM) | cell count (compound dose 5 µM) |
| --- | --- | --- |
| O=C(COCC(=O)Nc1ccc(Cl)cc1C(=O)O)Nc1cccc(-c2ccoc2)c1 | 1.08 ± 0.18 | 1.13 ± 0.31 |
| Cc1ccc(-c2nn(C(C)(C)CNC(=O)c3ccncc3)c3ncnc(N)c23)cc1 | 0.896 ± 0.12 | 0.891 ± 0.18 |
| CCO[C@@H]1OC(=O)C[C@@H]1NC(=O)[C@@H]1CCCN1C(=O)[C@@H](NC(=O)c1ccc(N)c(Cl)c1)C(C)(C)C [Belnacasan] | 1.04 ± 0.17 | 1.07 ± 0.13 |
| C[C@H]1[C@@H](O)O[C@@H]2O[C@@]3(C)CC[C@H]4[C@H](C)CC[C@@H]1[C@@]24OO3 [Dihydroartemisinin] | 1.09 ± 0.03 | 0.899 ± 0.12 |
| COc1cc2c(cc1OC)[C@@H](Cc1ccc(O)c(Oc3cc4c(cc3OC)CCN(C)[C@@H]4Cc3ccc(O)cc3)c1)N(C)CC2 [Liensinine] | 1.06 ± 0.026 | 1.11 ± 0.2 |
| Cc1ncc([N+](=O)[O-])n1CCO [Metronidazole] | 1.08 ± 0.06 | 1.02 ± 0.042 |
| CC(C)=CCc1cc(-c2coc3cc(O)ccc3c2=O)ccc1O [Neobavaisoflavone] | 1.14 ± 0.21 | 1.24 ± 0.033 |
| Cc1ccc(-c2c(C#N)c(N)n3c(nc4ccccc43)c2C#N)cc1 | 1.06 ± 0.33 | 1.06 ± 0.29 |
| COc1ccc2[nH]cc(CCNC(C)=O)c2c1 | 1.11 ± 0.095 | 1.02 ± 0.065 |
| O=C([O-])c1ccccc1O.[Na+] [Sodium Salicylate] | 1.02 ± 0.077 | 1.13 ± 0.079 |
| Cc1ccc(C(=O)c2cc(O)c(O)c([N+](=O)[O-])c2)cc1 [Tolcapone] | 1.12 ± 0.2 | 1.17 ± 0.26 |
| C=CC[C@@H]1/C=C(\C)C[C@H](C)C[C@H](OC)[C@H]2O[C@@](O)(C(=O)C(=O)N3CCCC[C@H]3C(=O)O[C@H](/C(C)=C/[C@@H]3CC[C@@H](O)[C@H](OC)C3)[C@H](C)[C@@H](O)CC1=O)[C@H](C)C[C@@H]2OC [Tacrolimus (monohydrate)] | 1.15 ± 0.25 | 1.05 ± 0.038 |
| CCCC(=O)Nc1ncnc2c1ncn2[C@@H]1O[C@@H]2COP(=O)(O)O[C@H]2[C@H]1OC(=O)CCC [Bucladesine (calcium)] | 1.12 ± 0.33 | 1.02 ± 0.15 |
| COc1cc(OC)c(C=C2C(=O)Nc3ccccc32)c(OC)c1 | 1.16 ± 0.063 | 1.081 ± 0.0057 |
| O=Nc1c(-c2c(O)[nH]c3cc(Br)ccc23)[nH]c2ccccc12 [GSK 3 Inhibitor IX] | 0.893 ± 0.14 | 0.456 ± 0.036 |
| CO[C@@H]1[C@@H](OC(N)=O)[C@@H](O)[C@H](Oc2ccc3c(O)c(NC(=O)c4ccc(O)c(CC=C(C)C)c4)c(=O)oc3c2C)OC1(C)C [Novobiocin (Sodium)] | 1.24 ± 0.45 | 1.16 ± 0.18 |
| Clc1ccc(-c2csc(NN=C3CCCC3)n2)cc1 | 1.13 ± 0.18 | 1.27 ± 0.19 |
| CN(NC(=O)CC(=O)NN(C)C(=S)c1ccccc1)C(=S)c1ccccc1 [Elesclomol] | 0.8845 ± 0.0078 | 0.905 ± 0.089 |
| COc1ccc(C[C@@H]2c3cc(Oc4cc(C[C@@H]5c6cc(O)c(OC)cc6CCN5C)ccc4O)c(OC)cc3CCN2C)cc1 [Isoliensinine] | 1.12 ± 0.21 | 1.11 ± 0.37 |
| OCCN1CCN(CCCN2c3ccccc3Sc3ccc(Cl)cc32)CC1 | 1.07 ± 0.14 | 1.04 ± 0.049 |
| O=C(c1ccc(C(=O)N2CCC(N3CCCC3)CC2)c(Nc2ccccc2)c1)N1CCC(N2CCCC2)CC1 | 1.22 ± 0.055 | 1.06 ± 0.055 |
| O=c1c(-c2ccc(O)cc2)coc2cc(O[C@@H]3O[C@H](CO)[C@@H](O)[C@H](O)[C@H]3O)cc(O)c12 [Genistin] | 1.15 ± 0.14 | 1.1 ± 0.049 |
